Test results reported in PubChem BioAssay AID1347073 (National Center for Advancing Translational Sciences (NCATS), 2019).
Hit rate of the full screen: of about 45,000 compounds, about 200 (0.44%) were called active. Another 7% or so got no clear call; they are omitted. Calls come from the whole dose curve; as a rule, active = well fitted activation curve with a large enough effect; inconclusive = small, poorly fitted or top-dose-only effect; inactive = no such curve, though single readings can be large or run the other way. This is one part of the list.

Assay: qHTS of TDP-43 Inhibitors: NCGC Sytravon Library Screen; note: 0% is about no effect; nearly all actives have a fitted effect of over 55% in size
Details: yeast TDP-43 toxicity rescue, BacTiter-Glo growth, 24 h; series mostly up to 46.1 µM; growth rescue (activation): at the top concentration
In short: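 TDP-43-expressing yeast, pregrown in raffinose, seeded at OD600 0.02 in galactose medium with compound for 24 hr at 30 deg C. Growth read by BacTiter-Glo luminescence, so rescue of toxicity appears as activation.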

| Structure (SMILES) | growth rescue (activation) |
| --- | --- |
| S=c1[nH]nc(-c2cccnc2)n1C1CCCCC1 | inactive: 1.25% |
| C=CCNc1nnc(SCC(=O)N2CCC(C(N)=O)CC2)s1 | inactive: 16.4% |
| CC1CCN(C(=O)c2ccc(CNc3c(N4CCCC4)c(=O)c3=O)cc2)CC1 | inactive: 17% |
| Cc1ccc(-c2nnn(CC(=O)N(CC(=O)NC3CCCC3)c3ccc(F)cc3)n2)o1 | inactive: 10.3% |
| CCc1nc2c(OCc3ccc(F)c(F)c3)cccn2c1N(C)C(=O)c1cccs1 | inactive: 27% |
| COc1ccc(C2CC(c3ccccc3)=NN2C(=O)COC(=O)c2cccc(S(=O)(=O)N3CCOCC3)c2)cc1 (configuration not stated) | inactive: 4.73% |
| CCC(=O)N(Cc1cc(=O)[nH]c2ccccc12)c1ccccc1C | inactive: 9.38% |
| CCOc1ccc(CN2C(=O)c3ccccc3C2=O)cc1C(=O)O | inactive: 0.98% |
| CN(C)c1ccc(NC(=S)NC23CC4CC(CC(C4)C2)C3)cc1 | inactive: -14.4% |
| O=C(NC1CCCC1)C(c1ccc(F)cc1)N(Cc1ccccc1)C(=O)c1csnn1 (configuration not stated) | inactive: 0.968% |
| CNS(=O)(=O)c1cc(NC(=O)CCNC(=O)c2ccco2)ccc1C | inactive: -1.81% |
| CC1(C)Cc2c(c(=S)nc(-c3ccccc3)n2CCOCCO)CO1 | inactive: 4.13% |
| COc1cccc(N(C(=O)c2ccco2)C(C(=O)NC2CCCC2)c2ccc(N(C)C)cc2)c1 (configuration not stated) | inactive: 9.36% |
| CCCC(=O)N(Cc1cc(=O)[nH]c2ccccc12)c1ccccc1 | inactive: -4.33% |
| O=C(N/N=C/c1cccnc1)c1cccc(NC(=O)c2ccc(Cl)cc2)c1 | inactive: -2.8% |
| O=C(CN1CCN(c2ccccn2)CC1)Nc1cccc(Br)c1 | inactive: 18% |
| Cc1ccc2nc(-c3ccc(NC(=O)C(C)N4C(=O)c5ccccc5C4=O)cc3)sc2c1 (configuration not stated) | inactive: 6.05% |
| CCC(C)NC(=O)CCc1c(C)nc2c(c(C)nn2-c2ccc(C)cc2)c1C (configuration not stated) | inactive: 6.56% |
| COc1ccc(N2CC(C(=O)Nc3ccc4c(c3)OCCO4)CC2=O)cc1 (configuration not stated) | inactive: 2.74% |
| COc1ccc(CCNC(=O)CN2C(=O)NC3(CCCCC3)C2=O)cc1 | inactive: 8.38% |
| CCOC(=O)c1ccc(-c2ccc(/C=C(\C#N)c3nc4ccc(C)cc4[nH]3)o2)cc1 | inactive: 1.53% |
| N#C/C(=C(/O)CN1CCCC1)c1nc(-c2ccccc2)cs1 | inactive: -6.55% |
| CN(Cc1ccccc1)c1nc(CN2CCOCC2)nc2scc(-c3ccccc3)c12 | inactive: 8.32% |
| Cc1cccc2c1N(C(=O)CN1C(=O)c3ccccc3C1=O)C(C)(C)c1ssc(=S)c1-2 | inactive: 13.2% |
| Cc1ccc(N2CC(C(=O)NCCN3CCOCC3)CC2=O)cc1 (configuration not stated) | inactive: -0.577% |
| CCN1CCC2(CC1)Oc1c(OC)cccc1C1CC(c3cccnc3)=NN12 (configuration not stated) | inactive: 0.904% |

| Structure (SMILES) | growth rescue (activation) |
| --- | --- |
| CCc1nnc(NC(=O)COc2ccc([N+](=O)[O-])cc2)s1 | inactive: 4% |
| Nn1cnnc1SCC(=O)N(C1CCCCC1)C1CCCCC1 | inactive: 7.89% |
| CC1Cc2ccccc2N1S(=O)(=O)c1cccc(C(=O)N2CCCCC2)c1 (configuration not stated) | inactive: -0.0385% |
| COc1ccc2[nH]c(=O)c(CN(C(=O)C3CCCO3)c3ccc(C)c(C)c3)cc2c1 (configuration not stated) | inactive: -2.66% |
| CC(=O)NC(=S)Nc1ccccc1N1CCCCC1 | inactive: 19.8% |
| NC(=O)C1CCN(C2CC(=O)NC2=O)CC1 (configuration not stated) | inactive: 7.57% |
| CC(=O)Nc1ccc(S(=O)(=O)N2CCC(C(=O)O)CC2)cc1 | inactive: 2.18% |
| Cc1sc2nc(SCCN(C)C)n(-c3ccccc3)c(=O)c2c1-c1ccc(F)cc1 | inactive: -15.8% |
| CN(C)CCNC(=O)C(=O)c1c(-c2ccccc2)cc2ccccn12 | inactive: -15.1% |
| CCC12C(=O)C(CC)(C(c3ccccc3)=C1c1ccccc1)[C@@H]1C(=O)N(c3ccccc3)C(=O)C12 (some centres not stated) | inactive: 9.01% |
| O=C(Cn1c(=O)oc2cc(S(=O)(=O)N3CCCCCC3)ccc21)Nc1ccc(F)cc1F | inactive: 9.78% |
| CN(C(=O)CSc1nnc(Nc2ccccc2F)s1)C1CCS(=O)(=O)C1 (configuration not stated) | inactive: 0.896% |
| O=C(CSc1ccccc1)Nc1nc2ccccc2[nH]1 | inactive: 8.32% |
| COCCNc1nc(NCc2cccc(OC)c2)c2sccc2n1 | inactive: 10.8% |
| COc1cccc2c1OCC([C@@H]1C[C@H]3CN(Cc4cccc(Cl)c4)C(=O)[C@]34CCCN14)=C2 | inactive: 8.68% |
| Cc1cccc(C(=O)OCC(=O)N(C)c2ccccc2)c1C | inactive: -25.9% |
| COc1cc(CC(=O)OCC(=O)Nc2sccc2C(N)=O)cc(OC)c1OC | inactive: 4.09% |
| O=C1N(Cc2cccc(Cl)c2)C[C@@H]2C[C@@H](c3cccn3-c3cccnc3)N3CCC[C@@]123 | inactive: 8.38% |
| Cc1cccc(C)c1OCc1cc(C(=O)N2CCCCCCC2)no1 | inactive: 17.5% |
| O=[N+]([O-])c1cccc(/C=C/c2ccncc2)c1 | inactive: 3.54% |
| C=CCn1c(C)cc(C2=NNC(=NCC)SC2)c1C | inactive: -19.4% |
| O=C1C=CC(=O)N1CCNc1ncc(C(F)(F)F)cc1Cl | inactive: -94.5% |
| Cc1ccc(SCC(=O)N2c3ccccc3Sc3ccccc32)cc1 | inactive: 4.93% |
| CC(=O)Nc1ccc(NC(=O)C(C)OC(=O)C2(c3ccc(Cl)cc3)CCCC2)cc1 (configuration not stated) | inactive: 26.1% |
| COCCCn1c(-c2ccccc2Cl)n[nH]c1=S | inactive: -7.57% |
| Nc1nc(SCC(=O)Nc2cc(Cl)c(Cl)cc2Cl)n[nH]1 | inactive: 7.87% |
